Test results as given in the supplement of paper PMC8728848.
The other results are listed elsewhere or left out.

Tests used:
Test in all cases: glycan array binding signal (z-score within array); higher = stronger binding
Conditions in all cases: glycan notation: IUPAC condensed, linker removed
[1] = target: Man(a1-2)Man(a1-3)[Man(a1-2)Man(a1-6)]Man
In short: (§1)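 Negative Z-scores can be read as non-binding. The Z-score is calculated within each array and then averaged across arrays of one protein sequence at different concentrations or buffers and across linkers. Arrays, 3228 in all, were curated from the Consortium for Functional Glycomics database and kept only where the protein sequence was available.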

[2] = target: Man(a1-2)Man(a1-3)[Man(a1-2)Man(a1-6)]Man(a1-6)[Man(a1-2)Man(a1-2)Man(a1-3)]Man
In short: as §1

[3] = target: Man(a1-2)Man(a1-3)[Man(a1-2)Man(a1-6)]Man(a1-6)[Man(a1-2)Man(a1-2)Man(a1-3)]Man(b1-4)GlcNAc(b1-4)GlcNAc
In short: as §1

[4] = target: Man(a1-2)Man(a1-3)[Man(a1-6)]Man(a1-6)[Man(a1-2)Man(a1-3)]Man(b1-4)GlcNAc(b1-4)GlcNAc
In short: as §1

[5] = target: Man(a1-2)Man(a1-6)[Man(a1-3)]Man(a1-6)[Man(a1-2)Man(a1-2)Man(a1-3)]Man
In short: as §1

[6] = target: Man(a1-2)Man(a1-6)[Man(a1-3)]Man(a1-6)[Man(a1-2)Man(a1-2)Man(a1-3)]Man(b1-4)GlcNAc(b1-4)GlcNAc
In short: as §1

[7] = target: Man(a1-3)[Man(a1-6)]Man
In short: as §1

[8] = target: Man(a1-3)[Man(a1-6)]Man(a1-6)[Man(a1-2)Man(a1-3)]Man(b1-4)GlcNAc(b1-4)GlcNAc
In short: as §1

[9] = target: Man(a1-3)[Man(a1-6)]Man(a1-6)[Man(a1-3)]Man
In short: as §1

[10] = target: Man(a1-3)[Man(a1-6)]Man(a1-6)[Man(a1-3)]Man(b1-4)GlcNAc(b1-4)GlcNAc
In short: as §1

[11] = target: Man(a1-3)[Man(a1-6)]Man(b1-4)GlcNAc(b1-4)GlcNAc
In short: as §1

[12] = target: Man(a1-3)[Man(a1-6)]Man(b1-4)GlcNAc(b1-4)[Fuc(a1-6)]GlcNAc
In short: as §1

[13] = target: Man(a1-6)Man
In short: as §1

[14] = target: Man(b1-4)GlcNAc
In short: as §1

[15] = target: MurNAc(b1-4)GlcNAc
In short: as §1

[16] = target: Neu5Ac(a2-3)Gal
In short: as §1

[17] = target: Neu5Ac(a2-3)Gal(b1-3)GalNAc
In short: as §1

[18] = target: Neu5Ac(a2-3)Gal(b1-3)GalNAc(b1-3)Gal(a1-4)Gal(b1-4)Glc
In short: as §1

[19] = target: Neu5Ac(a2-3)Gal(b1-3)GalNAc(b1-4)Gal(b1-4)Glc
In short: as §1

[20] = target: Neu5Ac(a2-3)Gal(b1-3)GalNAc(b1-4)[Neu5Ac(a2-3)]Gal(b1-4)Glc
In short: as §1

[21] = target: Neu5Ac(a2-3)Gal(b1-3)GalNAc(b1-4)[Neu5Ac(a2-8)Neu5Ac(a2-3)]Gal(b1-4)Glc
In short: as §1

[22] = target: Neu5Ac(a2-3)Gal(b1-3)GalNAc6S
In short: as §1

[23] = target: Neu5Ac(a2-3)Gal(b1-3)GlcNAc
In short: as §1

[24] = target: Neu5Ac(a2-3)Gal(b1-3)GlcNAc(b1-2)Man
In short: as §1

[25] = target: Neu5Ac(a2-3)Gal(b1-3)GlcNAc(b1-2)Man(a1-3)[GlcNAc(b1-4)][Neu5Ac(a2-3)Gal(b1-3)GlcNAc(b1-2)Man(a1-6)]Man(b1-4)GlcNAc(b1-4)GlcNAc
In short: as §1

[26] = target: Neu5Ac(a2-3)Gal(b1-3)GlcNAc(b1-2)Man(a1-3)[Neu5Ac(a2-3)Gal(b1-3)GlcNAc(b1-2)Man(a1-6)]Man(b1-4)GlcNAc(b1-4)GlcNAc
In short: as §1

[27] = target: Neu5Ac(a2-3)Gal(b1-3)GlcNAc(b1-2)[Neu5Ac(a2-3)Gal(b1-3)GlcNAc(b1-4)]Man(a1-6)[Neu5Ac(a2-3)Gal(b1-3)GlcNAc(b1-2)Man(a1-3)]Man(b1-4)GlcNAc(b1-4)GlcNAc
In short: as §1

[28] = target: Neu5Ac(a2-3)Gal(b1-3)GlcNAc(b1-3)Gal(b1-3)GlcNAc
In short: as §1

[29] = target: Neu5Ac(a2-3)Gal(b1-3)GlcNAc(b1-3)Gal(b1-4)GlcNAc
In short: as §1

[30] = target: Neu5Ac(a2-3)Gal(b1-3)GlcNAc(b1-3)GalNAc
In short: as §1

[31] = target: Neu5Ac(a2-3)Gal(b1-3)GlcNAc(b1-4)Gal(b1-4)Glc
In short: as §1

[32] = target: Neu5Ac(a2-3)Gal(b1-3)GlcNAc(b1-6)GalNAc
In short: as §1

[33] = target: Neu5Ac(a2-3)Gal(b1-3)GlcNAc6S
In short: as §1

[34] = target: Neu5Ac(a2-3)Gal(b1-3)[Fuc(a1-4)]GlcNAc
In short: as §1

[35] = target: Neu5Ac(a2-3)Gal(b1-3)[Fuc(a1-4)]GlcNAc(b1-3)Gal(b1-3)[Fuc(a1-4)]GlcNAc
In short: as §1

[36] = target: Neu5Ac(a2-3)Gal(b1-3)[Fuc(a1-4)]GlcNAc(b1-3)Gal(b1-4)[Fuc(a1-3)]GlcNAc
In short: as §1

[37] = target: Neu5Ac(a2-3)Gal(b1-3)[GlcNAc(b1-6)]GalNAc
In short: as §1

[38] = target: Neu5Ac(a2-3)Gal(b1-3)[Neu5Ac(a2-6)]GalNAc
In short: as §1

B1: SSR1 (Sclerotium rolfsii), A0A0M3KL30 (protein)
chain: TYKITVRVYQTNPDAFFHPVEKTVWKYANGGTWTITDDQHVLTMGGSGTSGTLRFHADNGESFTATFGVHNYKRWCDIVTNLAADETGMVINQQYYSQKNREEARERQLSNYQVKNAKGRNFQIVYTEAEGNDLHANLIIG
Question: How did the “glycan array binding signal (z-score)” value [1] turn out when B1 was run?
Answer: -0.348

Question: What about the “glycan array binding signal (z-score)” value [2] of the same binder?
Answer: -0.346

Question: What about the “glycan array binding signal (z-score)” value [3] of the same binder?
Answer: -0.548

Question: And the “glycan array binding signal (z-score)” value [4]?
Answer: -0.326

Question: And the “glycan array binding signal (z-score)” value [5]?
Answer: -0.348

Question: And the “glycan array binding signal (z-score)” value [6]?
Answer: -0.322

Question: What about the “glycan array binding signal (z-score)” value [7] of the same binder?
Answer: -0.331

Question: What about the “glycan array binding signal (z-score)” value [8] of the same binder?
Answer: -0.304

Question: What about the “glycan array binding signal (z-score)” value [9] of the same binder?
Answer: -0.335

Question: And the “glycan array binding signal (z-score)” value [10]?
Answer: -0.33

Question: And the “glycan array binding signal (z-score)” value [11]?
Answer: 0.429

Question: What about the “glycan array binding signal (z-score)” value [12] of the same binder?
Answer: -0.342

Question: What about the “glycan array binding signal (z-score)” value [13] of the same binder?
Answer: -0.323

Question: And the “glycan array binding signal (z-score)” value [14]?
Answer: -0.331

Question: What about the “glycan array binding signal (z-score)” value [15] of the same binder?
Answer: -0.336

Question: What about the “glycan array binding signal (z-score)” value [16] of the same binder?
Answer: -0.338

Question: What about the “glycan array binding signal (z-score)” value [17] of the same binder?
Answer: 1.24

Question: What about the “glycan array binding signal (z-score)” value [18] of the same binder?
Answer: -0.325

Question: What about the “glycan array binding signal (z-score)” value [19] of the same binder?
Answer: -0.271

Question: And the “glycan array binding signal (z-score)” value [20]?
Answer: -0.34

Question: And the “glycan array binding signal (z-score)” value [21]?
Answer: -0.341

Question: What about the “glycan array binding signal (z-score)” value [22] of the same binder?
Answer: 1.65

Question: And the “glycan array binding signal (z-score)” value [23]?
Answer: -0.325

Question: And the “glycan array binding signal (z-score)” value [24]?
Answer: -0.35

Question: What about the “glycan array binding signal (z-score)” value [25] of the same binder?
Answer: -0.31

Question: What about the “glycan array binding signal (z-score)” value [26] of the same binder?
Answer: -0.317

Question: What about the “glycan array binding signal (z-score)” value [27] of the same binder?
Answer: -0.302

Question: And the “glycan array binding signal (z-score)” value [28]?
Answer: -0.349

Question: What about the “glycan array binding signal (z-score)” value [29] of the same binder?
Answer: -0.343

Question: What about the “glycan array binding signal (z-score)” value [30] of the same binder?
Answer: -0.21

Question: What about the “glycan array binding signal (z-score)” value [31] of the same binder?
Answer: -0.543

Question: What about the “glycan array binding signal (z-score)” value [32] of the same binder?
Answer: 0.019

Question: What about the “glycan array binding signal (z-score)” value [33] of the same binder?
Answer: -0.325

Question: What about the “glycan array binding signal (z-score)” value [34] of the same binder?
Answer: -0.341

Question: And the “glycan array binding signal (z-score)” value [35]?
Answer: -0.325

Question: What about the “glycan array binding signal (z-score)” value [36] of the same binder?
Answer: -0.319

Question: What about the “glycan array binding signal (z-score)” value [37] of the same binder?
Answer: 0.858

Question: And the “glycan array binding signal (z-score)” value [38]?
Answer: 0.97
